Measurements published in a collection of fitness landscapes (doi:10.1126/science.1257360).
Some of the results follow.

B1: PhoQ; a variant is named by its letters at X, in order, P23837 (parent)
chain: MKKLLRLFFPLSLRVRFLLATAAVVLVLSLAYGMVALIGYSVSFDKTTFRLLRGESNLFYTLAKWENNKLHVELPENIDKQSPTMTLIYDENGQLLWAQRDVPWLMKMIQPDWLKSNGFHEIEADVNDTSLLLSGDHSIQQQLQEVREDDDDAEMTHSVAVNVYPATSRMPKLTIVVVDTIPVELKSSYMVWSWFIYVLSANLLLVIPLLWVAAWWSLRPIEALAKEVRELEEHNRELLNPATTRELTSLVRNLNRLLKSERERYDKYRTTLTDLTHSLKTPLXXLQXXLRSLRSEKMSVSDAEPVMLEQISRISQQIGYYLHRASMRGGTLLSRELHPVAPLLDNLTSALNKVYQRKGVNISLDISPEISFVGEQNDFVEVMGNVLDNACKYCLEFVEISARQTDEHLYIVVEDDGPGIPLSKREVIFDRGQRVDTLRPGQGVGLAVAREITEQYEGKIVAGESMLGGARMEVIFGRQHSAPKDE

Variants of: B1
Assay: enrichment ratio after two sorts for PhoP signalling (ratio (wild type AVST 3.29)); higher = more functional
Settings: with PhoP (E. coli)

| Variant | enrichment ratio |
| --- | --- |
| DMMV | ≤ 0.25 |
| NAYI | ≤ 0.25 |
| MSEF | ≤ 0.25 |
| FHDS | ≤ 0.25 |
| HPKP | ≤ 0.25 |
| WAQE | ≤ 0.25 |
| PPDC | ≤ 0.25 |
| QEEN | ≤ 0.25 |
| YRYD | ≤ 0.25 |
| IAYP | ≤ 0.25 |
| HISG | ≤ 0.25 |
| WYWF | ≤ 0.25 |
| LMGM | ≤ 0.25 |
| THCN | 4.64 |
| YKLP | ≤ 0.25 |
| LQQR | ≤ 0.25 |
| YVFW | ≤ 0.25 |
| VPTF | ≤ 0.25 |
| LITY | ≤ 0.25 |
| LPID | ≤ 0.25 |
| TSFG | 0.865 |
| ECFF | ≤ 0.25 |
| NHYK | ≤ 0.25 |
| LGKR | ≤ 0.25 |
| MKLL | 11.4 |
| PMMK | ≤ 0.25 |

| Variant | enrichment ratio |
| --- | --- |
| RSKQ | 0.493 |
| KVLG | ≤ 0.25 |
| IYFA | ≤ 0.25 |
| TQCR | 6.42 |
| FSVH | ≤ 0.25 |
| KIVT | ≤ 0.25 |
| RPCW | ≤ 0.25 |
| KFSD | ≤ 0.25 |
| IQYI | ≤ 0.25 |
| WQPP | ≤ 0.25 |
| FYHS | ≤ 0.25 |
| QVRR | ≤ 0.25 |
| TDHC | ≤ 0.25 |
| DPGP | ≤ 0.25 |
| RGFM | ≤ 0.25 |
| FKCR | ≤ 0.25 |
| FLEF | ≤ 0.25 |
| KYFH | ≤ 0.25 |
| AIFL | ≤ 0.25 |
| ECQR | ≤ 0.25 |
| IPTS | ≤ 0.25 |
| FITR | ≤ 0.25 |
| FQFQ | ≤ 0.25 |
| PTQA | ≤ 0.25 |
| DLAQ | ≤ 0.25 |
| GVWD | ≤ 0.25 |

| Variant | enrichment ratio |
| --- | --- |
| LAQW | ≤ 0.25 |
| QIFD | ≤ 0.25 |
| NPAI | ≤ 0.25 |
| VHQS | ≤ 0.25 |
| VVWW | ≤ 0.25 |
| MEQS | ≤ 0.25 |
| MRSM | ≤ 0.25 |
| MNLI | 6.91 |
| WGTP | ≤ 0.25 |
| EFLP | ≤ 0.25 |
| KAVT | ≤ 0.25 |
| TKGK | ≤ 0.25 |
| VQMK | ≤ 0.25 |
| QKDA | ≤ 0.25 |
| DNSV | ≤ 0.25 |
| DMFA | ≤ 0.25 |
| EWVF | ≤ 0.25 |
| KTCT | ≤ 0.25 |
| IFRY | ≤ 0.25 |
| IDYI | ≤ 0.25 |
| AVFP | ≤ 0.25 |
| WIRW | ≤ 0.25 |
| PRPI | ≤ 0.25 |
| QTGT | 7.74 |
| YWAR | ≤ 0.25 |
| LRDL | ≤ 0.25 |

| Variant | enrichment ratio |
| --- | --- |
| SVKM | ≤ 0.25 |
| KVRI | ≤ 0.25 |
| RRDC | ≤ 0.25 |
| LHDN | ≤ 0.25 |
| WVGG | ≤ 0.25 |
| EKLN | ≤ 0.25 |
| YKRK | ≤ 0.25 |
| WLVQ | ≤ 0.25 |
| GDAT | 2.57 |
| DWRE | ≤ 0.25 |
| HCMY | ≤ 0.25 |
| IDCK | ≤ 0.25 |
| THTT | ≤ 0.25 |
| GCDY | ≤ 0.25 |
| VTMI | 3.77 |
| IGGC | ≤ 0.25 |
| HNCD | ≤ 0.25 |
| NDQV | ≤ 0.25 |
| THMA | 6.15 |
| YGMS | 0.302 |
| SKVD | ≤ 0.25 |
| VKNH | ≤ 0.25 |
| FRGG | ≤ 0.25 |
| VIQF | ≤ 0.25 |
| SMSV | 5.79 |
| WGLP | ≤ 0.25 |

| Variant | enrichment ratio |
| --- | --- |
| PTWT | ≤ 0.25 |
| SEGN | 3.18 |
| RRVQ | ≤ 0.25 |
| ERAP | ≤ 0.25 |
| YQQT | ≤ 0.25 |
| YCQR | ≤ 0.25 |
| MSMY | 0.871 |
| NIPT | ≤ 0.25 |
| PSNG | ≤ 0.25 |
| MRVV | ≤ 0.25 |
| SRQI | ≤ 0.25 |
| ATGW | 7.81 |
| RVNR | ≤ 0.25 |
| ERNG | ≤ 0.25 |
| PVAY | ≤ 0.25 |
| TYHM | ≤ 0.25 |
| ISDQ | ≤ 0.25 |
| FCRP | ≤ 0.25 |
| TKVR | ≤ 0.25 |
| PEYV | ≤ 0.25 |
| WDHG | ≤ 0.25 |
| TAGC | 13.9 |
| NVRN | ≤ 0.25 |
| LWTM | 0.652 |
| PAQH | ≤ 0.25 |
| YQVD | ≤ 0.25 |

| Variant | enrichment ratio |
| --- | --- |
| EDTI | ≤ 0.25 |
| TENW | ≤ 0.25 |
| VYME | ≤ 0.25 |
| HPIH | ≤ 0.25 |
| GKVS | ≤ 0.25 |
| DYGT | ≤ 0.25 |
| HMQI | ≤ 0.25 |
| HRIC | ≤ 0.25 |
| TNQS | 3.44 |
| MRSV | ≤ 0.25 |
| QMWM | ≤ 0.25 |
| NYCQ | ≤ 0.25 |
| RMLL | ≤ 0.25 |
| WGNY | ≤ 0.25 |
| TPKC | ≤ 0.25 |
| PYPV | ≤ 0.25 |
| SNKF | ≤ 0.25 |
| FTEI | ≤ 0.25 |
| EGVW | ≤ 0.25 |
| QNIC | ≤ 0.25 |
| VGDP | ≤ 0.25 |
| RQMR | ≤ 0.25 |
| QRIT | ≤ 0.25 |
